Laboratory results: the supplement of paper PMC9334596
Where “and” joins values, the source holds several entries; their conditions need not be identical. Equal entries are not always repeated. In all, about 5,300 compounds were measured (“PER2::LUC luminescence relative to vehicle control”: median about 0.96, highest 2% from about 1.3 on). Some of the results follow.

System: mPer2Luc MEF
Assay: PER2::LUC luminescence relative to vehicle control (fold of vehicle); higher = higher PER2::LUC reporter signal
Conditions: 10 µM
In short: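 Compounds from commercial libraries were added at 10 μM to 384-well plates seeded 48 h earlier with ~3000 mPer2Luc mouse embryonic fibroblasts per well. The cells were kept in DMEM with 10% FBS at 37 °C and 5% CO2. Luminescence was read with ONE-Glo 24 h and 30 h after treatment, then an alamarBlue viability assay was run. Values are PER2::LUC luminescence relative to vehicle control, as fold change.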

SMILES | PER2::LUC luminescence (time after treatment 24 h) | PER2::LUC luminescence (time after treatment 30 h)
CC(C)C[C@H](NC(=O)[C@H](CCC(N)=O)NC(=O)[C@H](CCCCN)NC(=O)[C@H](CCC(N)=O)NC(=O)[C@@H](N)CCC(=O)O)C(=O)N[C@@H](CCC(N)=O)C(=O)O | 1.03 | 0.938
Cc1nc(-c2cccnc2)sc1C(=O)Nc1ccccc1-c1cn2c(CN3CCOCC3)csc2n1 | 1.07 | 0.911
CN(C)CCCN1c2ccccc2Sc2ccc(Cl)cc21 | 0.802 and 0.69 | 0.848 and 0.664
CCOC(=O)c1c(C)cc(O)cc1O | 1.01 | 1.04
CCCC1(C)C(C#N)(C#N)C1(C#N)C#N | 1.15 | 1.04
COc1ccccc1N1CCN(CCCCN2C(=O)CCC2=O)CC1 | 0.982 | 0.886
CC(C)Cn1c(=O)n(C)c(=O)c2[nH]cnc21 | 1 and 0.886 | 0.925 and 0.848
CCCCOc1cc(CC2CNC(=O)N2)ccc1OC (configuration not stated) | 0.947 and 0.699 | 0.899 and 0.995
OC[C@H]1O[C@@H](n2cnc3c(N[C@H]4CCC[C@@H]4O)ncnc32)[C@@H](O)C1O (some centres not stated) | 1.25 | 0.88
O=C1NC(=O)/C(=C/c2ccc3c(c2)OC(F)(F)O3)S1 | 1.31 and 1.12 | 1.42 and 1.06
CC1(C)C2CCC1(C(=O)O)C(=O)C2 (configuration not stated) | 0.998 | 0.954
CCOc1ccccc1OC(c1ccccc1)C1CNCCO1 (configuration not stated) | 0.967 | 0.954
N[C@@H](CCS(=O)O)C(=O)O | 0.964 | 0.944
COc1cc([C@@H]2c3cc4c(cc3[C@@H](O[C@@H]3O[C@@H]5CO[C@@H](c6cccs6)O[C@H]5[C@H](O)[C@H]3O)[C@H]3COC(=O)[C@H]23)OCO4)cc(OC)c1O | 0.578 | 0.334
Cc1cc(N2CCN([C@@H]3CN[C@H](C(=O)N4CCSC4)C3)CC2)n(-c2ccccc2)n1 | 1.11 | 1.11
Cc1cccn2c(=O)c(C=C(C#N)c3nc4ccccc4s3)c(Oc3ccc(F)cc3)nc12 | 0.941 | 0.942
OCc1ccccn1 | 1.03 and 0.984 | 0.993 and 1.19
COC1=CC(=O)C=C(OC)C1=O | 1.33 | 0.867
COc1cc(OC)c2c(=O)c(-c3ccccc3)c(C)oc2c1OC | 0.976 | 0.922
COc1ccc(CN2CCN(C(c3ccc(F)cc3)c3ccc(F)cc3)CC2)c(OC)c1OC | 0.965 and 0.899 | 0.936 and 0.941
CC(C)(C)NC[C@H](O)COc1ccccc1C1CCCC1 | 0.724 | 0.775
COc1ccc2c(c1)C(C(=O)N(Cc1ccc(N(C)C)cc1)c1ccc(C(C)C)cc1)CCC2 (configuration not stated) | 1.16 | 0.993

SMILES | PER2::LUC luminescence (time after treatment 24 h) | PER2::LUC luminescence (time after treatment 30 h)
COc1ccc(C(=O)c2ccccc2O)c(O)c1 | 1.02 | 1.04
CCN1CCN(Cc2ccc(Nc3ncc(F)c(-c4cc(F)c5nc(C)n(C(C)C)c5c4)n3)nc2)CC1 | 0.322 | 0.409
COCCc1ccc(OCC(O)CNC(C)C)cc1 (configuration not stated) | 0.933 and 0.85 | 0.982 and 0.89
Nc1nc2[nH]cc(CCc3ccc(C(=O)N[C@@H](CCC(=O)O)C(=O)O)cc3)c2c(=O)[nH]1 | 0.901 and 0.788 | 0.682 and 0.646
O=C(OCCOCCO)c1ccccc1Nc1cccc(C(F)(F)F)c1 | 0.989 | 0.97
CC1=C(C/C=C(\C)CCC[C@H](C)CCC[C@H](C)CCCC(C)C)C(=O)c2ccccc2C1=O | 1.08 and 0.883 | 0.944 and 1.08
Fc1ccc2c(CCNCc3cccc(OCC(F)(F)C(F)F)c3)c[nH]c2c1 | 0.89 | 0.843
O=C(O)[C@H]1/C(=C/CO)O[C@@H]2CC(=O)N21 | 1.21 | 1.1
Cc1ncc(COP(=O)([O-])[O-])c(CN(CCN(CC(=O)O)Cc2c(COP(=O)([O-])O)cnc(C)c2O)CC(=O)O)c1O.[Mn].[Na+].[Na+].[Na+] | 0.995 | 0.957
O=C(O)c1cc(I)ccc1NC(=O)[C@H](Cc1ccccc1)NCc1ccccc1 | 1.1 | 1.12
CC(=O)CC(=O)Nc1ccc(Cl)c(C(F)(F)F)c1 | 1.35 | 1.37
CC1CCCC(C)N1 (configuration not stated) | 1.03 | 1.18
O=c1c(O)c(-c2ccc(O)c(O)c2)oc2cc(O)cc(O)c12 | 0.939 and 0.842 | 0.934 and 1
CC(=O)Nc1cccc(O)c1 | 0.872 | 0.861
Cc1cnc(C(=O)O)c[n+]1[O-] | 1.01 | 1.19
COc1ccc(C2=N[C@H](c3ccc(Cl)cc3)[C@H](c3ccc(Cl)cc3)N2C(=O)N2CCNC(=O)C2)c(OC(C)C)c1 | 0.999 | 1.02
O=C(Nc1ccc([N+](=O)[O-])cc1O)Nc1ccccc1Br | 1.07 | 1.04
O=C(c1cncc(Br)c1)N1CCC(N2CCCC2)CC1 | 0.96 | 0.96
C[N+](C)(C)CCOP(=O)([O-])OC[C@H](O)CO | 1.09 | 1
COC(=O)C(N)Cc1ccc(Cl)cc1 (racemic) | 1.04 | 1.04
NC(C(=O)O)c1cccc(O)c1 (racemic) | 1.02 | 1.03
O=C(O)C1(C(=O)O)CCC1.[NH2-].[NH2-].[Pt+2] | 1.09 | 0.881

SMILES | PER2::LUC luminescence (time after treatment 24 h) | PER2::LUC luminescence (time after treatment 30 h)
CCN(CCCOc1ccc2c(Nc3cc(CC(=O)Nc4cccc(F)c4)[nH]n3)ncnc2c1)CCOP(=O)(O)O | 1 | 0.944
Cc1ccccc1N=Nc1ccc(NC(=O)c2ccnn2C)c(C)c1 | 0.845 | 0.897
Nc1ccc(NC(=O)c2ccc(C(F)(F)F)cc2)nc1 | 1.01 | 0.976
CN[C@@H]1[C@H](O[C@H]2[C@H](O[C@H]3[C@H](O)[C@@H](O)[C@H](NC(=N)N)[C@@H](O)[C@@H]3NC(=N)N)O[C@@H](C)[C@]2(O)CO)O[C@@H](CO)[C@H](O)[C@H]1O | 0.917 | 0.993
NCc1ccc(S(N)(=O)=O)cc1 | 0.99 and 1.15 | 1.07
CCc1oc2ccccc2c1C(=O)c1cc(Br)c(O)c(Br)c1 | 1.02 and 0.985 | 0.988 and 0.754
CC/C(=C(\c1ccccc1)c1ccc(OCCN(C)C)cc1)c1ccccc1 | 0.718 and 0.679 | 0.784 and 0.742
COc1cc2oc3cc(OC)c(OC)c(CC=C(C)C)c3c(=O)c2c(OC)c1CC=C(C)C | 1.01 | 1.02
Cn1cc(-c2ccc(S(=O)(=O)n3ccc(/C=C/C(=O)Nc4ccccc4N)c3)cc2)cn1 | 0.219 | 0.258
COc1cc(OC)c(-c2c(OC)cc(OC)cc2OC)c(OC)c1 | 0.943 | 0.891
CN(C)CCCCC(=O)Nc1ccc(NC(=S)NC(=O)c2ccc(C(C)(C)C)cc2)cc1 | 0.18 and 0.147 | 0.186 and 0.127
C#C[C@]1(O)CC[C@H]2[C@@H]3CCC4=C(CCC(=O)C4)[C@H]3CC[C@@]21C | 0.992 | 1.08
NC(=O)[C@@H]1CC[C@H](c2ccc(OCc3ccccc3F)cc2)N1 | 0.937 | 1.12
CCOC(=O)[N-]c1c[n+](N2CCOCC2)no1 | 1.09 | 1.74
CC[N+](CC)(CC)CCOc1cccc(OCC[N+](CC)(CC)CC)c1OCC[N+](CC)(CC)CC | 0.563 | 0.842
COc1cc2ncnc(Nc3ccccc3)c2cc1OC | 0.797 | 0.652
O=C(O)CCCCC1CCSS1 (racemic) | 1.03 | 1.2
COc1ccc2c(c1)O[C@@H]1COc3cc(OC)c(OC)cc3[C@@H]1C2=O | 0.625 | 0.623
CC(C)(C)NCC(O)c1cc(O)cc(O)c1 (configuration not stated) | 1.11 and 1.06 | 0.985 and 0.932
O=C(c1ccc(OCCCc2c[nH]cn2)cc1)C1CC1 | 1.09 and 1.51 | 1.33 and 1.29
CC(C)[C@H](N)C(=O)OCC(CO)OCn1cnc2c(=O)[nH]c(N)nc21 (some centres not stated) | 0.584 | 0.497
CN1CCC[C@@H]1CCO[C@](C)(c1ccccc1)c1ccc(Cl)cc1 | 0.728 | 0.678

SMILES | PER2::LUC luminescence (time after treatment 24 h) | PER2::LUC luminescence (time after treatment 30 h)
CCOc1ccc(NC(C)=O)cc1 | 0.845 | 1.16
CN1CCN(c2nc(C3=C(c4c[nH]c5ccccc45)C(=O)NC3=O)c3ccccc3n2)CC1 | 0.75 | 0.787
COc1cc2ncnc(Nc3ccc(F)c(Cl)c3)c2cc1OCCCN1CCOCC1 | 0.753 and 0.586 | 0.726 and 0.608
O=C(O)c1cccnc1C(=O)O | 0.981 | 0.885
CC(=O)Nc1ccc(C(=O)O)cc1 | 1.03 | 0.901
CCCCC[C@H](O)/C=C/[C@H]1[C@H](O)CC(=O)[C@@H]1CCCCCCC(=O)O | 1.11 and 1.13 | 0.83 and 1.13
CC[C@@H]([C@H](C)O)n1ncn(-c2ccc(N3CCN(c4ccc(OC[C@@H]5CO[C@@](Cn6cncn6)(c6ccc(F)cc6F)C5)cc4)CC3)cc2)c1=O | 0.744 | 0.717
CCN1CCC[C@H]1CNC(=O)c1c(O)c(Cl)cc(Cl)c1OC | 1.14 and 1.02 | 0.977 and 0.877
O=C(O)c1ccccc1 | 0.918 | 0.766
CN(CC[C@@H](Oc1ccc(C(F)(F)F)cc1)c1ccccc1)CC(=O)[O-].[Li+] | 0.942 | 0.784
CC(C)C[C@H](NC(=O)OCc1ccccc1)C(=O)N[C@@H](CC(C)C)C(=O)NCC(=O)CNC(=O)[C@H](CC(C)C)NC(=O)[C@H](CC(C)C)NC(=O)OCc1ccccc1 | 1.01 | 0.909
Oc1cc(O)c(Cl)cn1 | 1.25 | 1.18
CC1(C)CCC(C)(C)c2cc(C(=O)Nc3ccc(C(=O)O)cc3)ccc21 | 1.64 | 1.67
COC(=O)C1=C(C)NC(C)=C(C(=O)OCC(C)C)C1c1ccccc1[N+](=O)[O-] (configuration not stated) | 0.986 | 0.85
CC1(C)CNc2cc(NC(=O)c3cccnc3NCc3ccncc3)ccc21 | 0.853 and 0.796 | 0.802 and 0.858
CN1c2c([nH]c(N)nc2=O)NC[C@@H]1CNc1ccc(C(=O)N[C@@H](CCC(=O)O)C(=O)O)cc1 | 1.12 | 1.06
CC[C@@H]1/C=C(\C)C[C@H](C)C[C@H](OC)[C@H]2O[C@@](O)(C(=O)C(=O)N3CCCC[C@H]3C(=O)O[C@H](/C(C)=C/[C@@H]3CC[C@@H](O)[C@H](OC)C3)[C@H](C)[C@@H](O)CC1=O)[C@H](C)C[C@@H]2OC | 0.741 | 0.852
OC[C@H]1O[C@@H](c2ccc(Cl)c(Cc3ccc(O[C@H]4CCOC4)cc3)c2)[C@H](O)[C@@H](O)[C@@H]1O | 1.11 | 1.03
Cc1ccccc1CNc1ncnc2c1ncn2[C@@H]1O[C@H](CO)[C@@H](O)[C@H]1O | 1.35 | 1.28
CCCCOc1nc(N)c2c(n1)N(Cc1cccc(CN3CCCC3)c1)CC(=O)N2 | 0.951 | 0.974
